Experimental findings from the supplement of paper PMC10126150 are described below.

Sequences with one replicate were seen in a single cluster, so their values are uncertain.
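Note: ATP exposure 15 min at 22 °C before imaging.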

The subject of this series is ATP. The series can be described thus: switch fluorescence ratio, 500 uM ATP over buffer (Cy3 cluster intensity, sum of 5 cycles each) (fold (ratio)); higher = stronger signal-on switching upon ATP binding; sequences stand for … in TCGTCGGCAGCGTCAGATGTGTATAAGAGACAGTTTTTTTTTTTTTTTTTTTTTTTTT…TC. The conditions noted are these: aptamer strand: ATP DNA aptamer (quencher-CACCTGGGGGAGTATTGCGGAGGAAGG + anchor), 100 nM annealed; ATP concentration: 500 uM; one replicate. In short, it runs like this:
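Cy3-labelled switching-strand clusters on a modified Illumina MiSeq flow-cell were annealed to 100 nM quencher-labelled ATP aptamer and imaged first in selection buffer, then after 15 min with 500 uM ATP at 22 °C. NaOH stripping and re-annealing separated each of five buffer/ATP cycles, and clusters outside 100-1000 RFU were excluded. The fluorescence ratio sums target-cycle Cy3 intensity over buffer-cycle Cy3 intensity per cluster and averages it per switch-domain sequence.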
Consider GTCCTTTAAG, for which the switch fluorescence ratio came to 1.03.
AAAATACTTT: the switch fluorescence ratio stood at 1.16.
For GTCGAAAAGA, the switch fluorescence ratio is 1.
Consider TAGTAGGTA, for which the switch fluorescence ratio was determined as 1.09.
With TTATCGACTT the figure was 1.06; with GAGGGGTGTT, 0.982; with CATCAGACTC, 1.01.
As for TAGGGGCGAC, the switch fluorescence ratio worked out at 1.08.
For TGGGATTGCC, the switch fluorescence ratio worked out at 1.02.
TAGGAAACCG: the switch fluorescence ratio came out at 1.02.
Take ATCATAATT: the switch fluorescence ratio came out at 1.01.
With AATGGTACCG, the switch fluorescence ratio was determined as 1.
Regarding GAAGCTTCTG, the switch fluorescence ratio came out at 0.977.
For ATCGCAGGAA, the switch fluorescence ratio was 1.14.
With AAGCAATTCT the figure was 4.87; with GAATCTACCG, 1.
Consider TCTCGACCCC, for which the switch fluorescence ratio turned out to be 1.09.
CGAACGGATC: the switch fluorescence ratio worked out at 1.35.
The same measure for GCGCGGTAGC: 0.983.
Consider CTTACCCATT, for which the switch fluorescence ratio amounted to 1.46.
With TTTAATTCA the figure was 1; with TATTAGTACC, 1.03.
TTTGTGCACT: the switch fluorescence ratio worked out at 1.02.
On to CGGCCTTCGT, for which the switch fluorescence ratio was 1.09.
Regarding ACATGTGAGC, the switch fluorescence ratio was found to be 1.
Consider CGGGCAATT, for which the switch fluorescence ratio was determined as 1.57.
Take GAGGAGGGAT: the switch fluorescence ratio stood at 0.974.
As to CTGGCTCTGG, the switch fluorescence ratio was found to be 0.998.
With CAGGAATGTA the figure was 0.966; with TAGAGTTTTG, 0.985.
As for CCTCGAGCCT, the switch fluorescence ratio is 1.87.
For AAAAATACTA, the switch fluorescence ratio stood at 1.03.
The same measure for GTTCGAGTAG: 0.985; for GTTGCGGATT: 1.02.
As for TGATCGCCAG, the switch fluorescence ratio came to 0.999.
With TGCGGTGTTA the figure was 0.97.
With GCTAGGCCCG the figure was 0.939; with CCGCGGCAAG, 4.46.
Take ACTTTTACTA: the switch fluorescence ratio worked out at 1.12.
As for CATTTTCGTT, the switch fluorescence ratio stood at 0.956.
As to GTGATCTGTA, the switch fluorescence ratio came to 1.03.
In the case of TACACCCTGA, the switch fluorescence ratio worked out at 1.04.
For TAGGGATAGG, the switch fluorescence ratio worked out at 0.996.
For CCTGCTGGGG, the switch fluorescence ratio was determined as 1.
On to ACGAACGTGG, for which the switch fluorescence ratio is 1.1.
Turning to TTACAGTCTT, the switch fluorescence ratio turned out to be 1.02.
Consider CATTTCAAAG, for which the switch fluorescence ratio came out at 0.99.
Regarding GACATTTCAA, the switch fluorescence ratio came out at 0.951.
GCGCTTTAGG: the switch fluorescence ratio turned out to be 1.03.
Take GTTTGCGCCT: the switch fluorescence ratio turned out to be 1.01.
In the case of CACTTGTCTC, the switch fluorescence ratio is 0.98.
Consider GGAAAAACCG, for which the switch fluorescence ratio is 1.02.
As to GAATCGGTT, the switch fluorescence ratio amounted to 1.02.
Take GATAATACTA: the switch fluorescence ratio was 0.982.
The same measure for GGCAAGACCG: 1.04; for ACATGCTGAA: 0.99; for AGTGTTAGAA: 1.
With TGTAACGCAT the figure was 1.16.
As for TCGTCGTCTT, the switch fluorescence ratio turned out to be 0.98.
Take GCGAGCCGCT: the switch fluorescence ratio was determined as 1.02.
As to AGGAATTATT, the switch fluorescence ratio was 1.01.
Turning to CGAGGGAGAT, the switch fluorescence ratio came to 0.975.
Turning to ATACGCCCAA, the switch fluorescence ratio stood at 1.19.
With CGAGGGAAGG the figure was 1.15; with TGCCTGTGT, 1.02.
Turning to AGAAAGTGCT, the switch fluorescence ratio is 0.953.
For AAAATGCCTA, the switch fluorescence ratio came to 1.01.
On to TCGCCCCGGG, for which the switch fluorescence ratio was found to be 1.41.
For TAGTAATGAC, the switch fluorescence ratio worked out at 1.05.
For TGTTCGTGGG, the switch fluorescence ratio was 1.
With TGCGGACTGA the figure was 1.06; with ATAAGGAAA, 0.999.
For the sequence AAATATTATC, the switch fluorescence ratio is 1.04.
Regarding TAGGTGCAG, the switch fluorescence ratio is 1.01.
Turning to AAGTACTCGA, the switch fluorescence ratio was determined as 1.23.
As to GCAGGCAGTC, the switch fluorescence ratio is 0.975.
The same measure for TTTAGAAGCA: 0.983.
With TATCACAAGG the figure was 1.04; with TCCATAGGCT, 0.989.
On to CAGCATCGAT, for which the switch fluorescence ratio stood at 1.
The same measure for GGTCTCCAGG: 1.29; for GCGTCTAGCT: 1.01; for TAGTATGATG: 0.968.
The same measure for CGAATAGTAG: 1.04; for GCCCTCGACA: 1.03.
As for ACAGGTAGTA, the switch fluorescence ratio stood at 1.07.
For the sequence GATATGTTTG, the switch fluorescence ratio turned out to be 0.977.
Turning to GTGGGGTCCT, the switch fluorescence ratio came to 1.02.
Regarding GGTTCCAGGG, the switch fluorescence ratio came to 1.07.
With TGTCTTTTCA, the switch fluorescence ratio is 0.982.
With TTCGTGAAGG the figure was 0.967.
For the sequence GCTTAAAACT, the switch fluorescence ratio worked out at 1.02.
For GAGTGCCATC, the switch fluorescence ratio is 0.97.
ACGCTTTTGC: the switch fluorescence ratio stood at 1.07.
The same measure for TAATTATCCT: 1.05.
For the sequence TGTAAAAAAC, the switch fluorescence ratio amounted to 1.01.
For CGGGCCGAAG, the switch fluorescence ratio worked out at 0.979.
For the sequence TAAGATGGGA, the switch fluorescence ratio came to 1.03.
Turning to ACGGTTAATT, the switch fluorescence ratio worked out at 1.06.
Regarding CGAACGAAAG, the switch fluorescence ratio worked out at 1.06.
Take CACTCCGGGT: the switch fluorescence ratio was 1.23.
With AATATAGTGG the figure was 0.958; with TTGTCGGAAC, 1.02.
The same measure for TGCATGGCAT: 0.976.
Take GACTCTCGTG: the switch fluorescence ratio is 1.
With AAAATCCGCT the figure was 1.45; with CCGCCTCTAG, 1.91; with GCTTGGAAC, 0.952.
As to TATACCAATT, the switch fluorescence ratio is 1.12.
For TTAGTAGGTT, the switch fluorescence ratio is 0.983.
Turning to TTGTAAAAAC, the switch fluorescence ratio is 0.983.
Take CATCACCAGC: the switch fluorescence ratio was 1.08.
As to GGAATCTCTT, the switch fluorescence ratio was 0.977.
Turning to GGTAATTTGC, the switch fluorescence ratio is 0.981.
With ATTCCTGCGT, the switch fluorescence ratio turned out to be 1.46.
As to CCTGTGCCGA, the switch fluorescence ratio came to 1.09.
In the case of CTGTAGTTAT, the switch fluorescence ratio stood at 1.27.
With ATTAAACCTC, the switch fluorescence ratio is 1.18.
CGTATTACGA: the switch fluorescence ratio worked out at 1.
As to AATAATTCAG, the switch fluorescence ratio is 1.01.
